The target in one test is T1, YFP-S100A11 CM (UniProt P31949).
T1 sequence: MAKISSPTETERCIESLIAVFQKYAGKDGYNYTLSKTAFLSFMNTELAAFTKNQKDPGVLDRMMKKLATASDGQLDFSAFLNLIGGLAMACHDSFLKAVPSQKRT
Nature of the test: co-IP; lysates of S100A11-KO EA.hy926 cells transfected with empty GFP vector, YFP-S100A11, YFP-S100A11 ΔCTM or YFP-S100A11 CM; GFP Selector beads; 2 mM Ca2+; endogenous ANXA1 and ANXA2 detected by immunoblot.

Amino acid sequences for entries named in this document (tags omitted).
UniProt P07355: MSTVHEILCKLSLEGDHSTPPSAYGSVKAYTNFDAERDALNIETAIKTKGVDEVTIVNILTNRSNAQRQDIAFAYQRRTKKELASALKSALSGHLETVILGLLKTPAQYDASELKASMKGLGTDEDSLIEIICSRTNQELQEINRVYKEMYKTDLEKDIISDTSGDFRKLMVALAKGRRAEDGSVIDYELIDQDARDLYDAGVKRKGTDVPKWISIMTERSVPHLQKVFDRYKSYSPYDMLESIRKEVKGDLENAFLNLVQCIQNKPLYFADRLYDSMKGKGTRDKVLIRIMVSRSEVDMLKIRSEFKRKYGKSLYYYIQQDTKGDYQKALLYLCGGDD

Test [1] has as its target T2, YFP-S100A11 (UniProt P31949).
T2 sequence: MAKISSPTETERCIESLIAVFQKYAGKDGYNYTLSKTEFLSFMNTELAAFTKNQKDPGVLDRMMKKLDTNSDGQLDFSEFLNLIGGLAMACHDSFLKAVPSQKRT
The description is as above.

In a further test the target is T3, YFP-S100A11 ΔCTM (UniProt P31949).
T3 sequence: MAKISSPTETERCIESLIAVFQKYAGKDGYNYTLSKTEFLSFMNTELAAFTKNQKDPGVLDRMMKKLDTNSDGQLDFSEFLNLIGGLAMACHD
The description is as above.

The target in test [2] is T2, YFP-S100A11. Description: co-IP; lysates of HUVEC expressing YFP-S100A11 (GFP or non-transfected as controls); GFP Selector beads; 2 mM CaCl2 in the wash buffer (250 mM sucrose, 20 mM HEPES pH 7.5, 0.5 mM EDTA), 1 h at 4°C; endogenous partners detected by immunoblot.
Test [3] addresses T2, YFP-S100A11. The description is as above. The source holds these as a separate data set.

Results are given in words; binding and its absence hold for the method and conditions named. In cells and extracts the contact can be indirect. Some results given as binding are weak or reduced against the parent protein; the word gives no strength. Sequences can lack the tags named with a protein.

Consider “annexin A2 (ANXA2) (from UniProt P07355 1-339)”, for which the binding result with YFP-S100A11 CM is on record as “no binding”; with YFP-S100A11 [1] it was “binds”; with YFP-S100A11 ΔCTM, “no binding”; in the test with YFP-S100A11 [2], “binds”.

B1: extended synaptotagmin 1 (E-Syt1) (protein, UniProt Q9BSJ8 1-1104)
chain: MERSPGEGPSPSPMDQPSAPSDPTDQPPAAHAKPDPGSGGQPAGPGAAGEALAVLTSFGRRLLVLIPVYLAGAVGLSVGFVLFGLALYLGWRRVRDEKERSLRAARQLLDDEEQLTAKTLYMSHRELPAWVSFPDVEKAEWLNKIVAQVWPFLGQYMEKLLAETVAPAVRGSNPHLQTFTFTRVELGEKPLRIIGVKVHPGQRKEQILLDLNISYVGDVQIDVEVKKYFCKAGVKGMQLHGVLRVILEPLIGDLPFVGAVSMFFIRRPTLDINWTGMTNLLDIPGLSSLSDTMIMDSIAAFLVLPNRLLVPLVPDLQDVAQLRSPLPRGIIRIHLLAARGLSSKDKYVKGLIEGKSDPYALVRLGTQTFCSRVIDEELNPQWGETYEVMVHEVPGQEIEVEVFDKDPDKDDFLGRMKLDVGKVLQASVLDDWFPLQGGQGQVHLRLEWLSLLSDAEKLEQVLQWNWGVSSRPDPPSAAILVVYLDRAQDLPLKKGNKEPNPMVQLSIQDVTQESKAVYSTNCPVWEEAFRFFLQDPQSQELDVQVKDDSRALTLGALTLPLARLLTAPELILDQWFQLSSSGPNSRLYMKLVMRILYLDSSEICFPTVPGCPGAWDVDSENPQRGSSVDAPPRPCHTTPDSQFGTEHVLRIHVLEAQDLIAKDRFLGGLVKGKSDPYVKLKLAGRSFRSHVVREDLNPRWNEVFEVIVTSVPGQELEVEVFDKDLDKDDFLGRCKVRLTTVLNSGFLDEWLTLEDVPSGRLHLRLERLTPRPTAAELEEVLQVNSLIQTQKSAELAAALLSIYMERAEDLPLRKGTKHLSPYATLTVGDSSHKTKTISQTSAPVWDESASFLIRKPHTESLELQVRGEGTGVLGSLSLPLSELLVADQLCLDRWFTLSSGQGQVLLRAQLGILVSQHSGVEAHSHSYSHSSSSLSEEPELSGGPPHITSSAPELRQRLTHVDSPLEAPAGPLGQVKLTLWYYSEERKLVSIVHGCRSLRQNGRDPPDPYVSLLLLPDKNRGTKRRTSQKKRTLSPEFNERFEWELPLDEAQRRKLDVSVKSNSSFMSRERELLGKVQLDLAETDLSQGVARWYDLMDNKDKGSS
As for B1, the binding result with YFP-S100A11 [3] is recorded as “binds weakly”.

B2: annexin A6 (ANXA6) (protein, UniProt P08133 1-673)
chain: MAKPAQGAKYRGSIHDFPGFDPNQDAEALYTAMKGFGSDKEAILDIITSRSNRQRQEVCQSYKSLYGKDLIADLKYELTGKFERLIVGLMRPPAYCDAKEIKDAISGIGTDEKCLIEILASRTNEQMHQLVAAYKDAYERDLEADIIGDTSGHFQKMLVVLLQGTREEDDVVSEDLVQQDVQDLYEAGELKWGTDEAQFIYILGNRSKQHLRLVFDEYLKTTGKPIEASIRGELSGDFEKLMLAVVKCIRSTPEYFAERLFKAMKGLGTRDNTLIRIMVSRSELDMLDIREIFRTKYEKSLYSMIKNDTSGEYKKTLLKLSGGDDDAAGQFFPEAAQVAYQMWELSAVARVELKGTVRPANDFNPDADAKALRKAMKGLGTDEDTIIDIITHRSNVQRQQIRQTFKSHFGRDLMTDLKSEISGDLARLILGLMMPPAHYDAKQLKKAMEGAGTDEKALIEILATRTNAEIRAINEAYKEDYHKSLEDALSSDTSGHFRRILISLATGHREEGGENLDQAREDAQVAAEILEIADTPSGDKTSLETRFMTILCTRSYPHLRRVFQEFIKMTNYDVEHTIKKEMSGDVRDAFVAIVQSVKNKPLFFADKLYKSMKGAGTDEKTLTRIMVSRSEIDLLNIRREFIEKYDKSLHQAIEGDTSGDFLKALLALCGGED
As for B2, the binding result with YFP-S100A11 [3] is reported as “no binding”.

Source of the values: article PMC9527316.
